# Source: publication PMC5700166
# The entries are a selection whose mix differs from that of the whole data set. The list includes weakly bound sequences.
# Experiments:
# Test in all cases: protein-binding microarray (PBM)
# Settings in all cases: PBM: ~300 nM protein, 6 mM HEPES pH 7.8, 80 mM KCl, 0.5 mM EDTA, 0.5 mM EGTA, 6% glycerol, 35 ng/ul poly-dIdC, 1% milk, 1 h, room temperature; Ap Aiptasia and Nv Nematostella (sea anemones) / Co Capsaspora / Aq Amphimedon (sponge) / Dm Drosophila / Hu human; RHD is the Rel homology domain; high values mean tight binding; most listed sequences are background and not binding sites; double strand, one strand shown
# GST-Ap-NF-kB RHD = target: T1, GST-Ap-NF-kB RHD (UniProt A0A913YAJ5)
# T1 sequence: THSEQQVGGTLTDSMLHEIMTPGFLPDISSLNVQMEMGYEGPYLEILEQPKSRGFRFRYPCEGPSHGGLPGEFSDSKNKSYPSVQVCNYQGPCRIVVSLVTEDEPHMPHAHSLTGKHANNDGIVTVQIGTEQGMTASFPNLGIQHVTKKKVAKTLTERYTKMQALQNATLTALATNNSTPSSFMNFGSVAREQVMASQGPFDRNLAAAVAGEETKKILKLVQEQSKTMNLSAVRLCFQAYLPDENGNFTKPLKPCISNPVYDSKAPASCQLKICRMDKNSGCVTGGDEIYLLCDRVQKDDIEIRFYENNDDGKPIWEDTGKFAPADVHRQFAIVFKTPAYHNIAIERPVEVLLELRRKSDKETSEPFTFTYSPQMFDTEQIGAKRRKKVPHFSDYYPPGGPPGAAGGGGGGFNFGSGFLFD
# [1] = target: T2, GST-Nv-NF-kB (Cys allele) (UniProt E5G601)
# T2 sequence: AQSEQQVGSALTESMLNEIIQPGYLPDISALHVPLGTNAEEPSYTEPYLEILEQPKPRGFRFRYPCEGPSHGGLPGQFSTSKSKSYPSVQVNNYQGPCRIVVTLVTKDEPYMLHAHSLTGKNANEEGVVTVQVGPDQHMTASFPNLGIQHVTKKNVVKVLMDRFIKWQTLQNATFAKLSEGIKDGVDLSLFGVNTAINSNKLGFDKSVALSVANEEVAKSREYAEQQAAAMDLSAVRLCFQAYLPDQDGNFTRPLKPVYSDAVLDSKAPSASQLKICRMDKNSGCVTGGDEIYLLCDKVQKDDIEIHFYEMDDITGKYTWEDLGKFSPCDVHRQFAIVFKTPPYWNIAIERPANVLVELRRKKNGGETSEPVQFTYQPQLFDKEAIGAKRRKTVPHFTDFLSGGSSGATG
# GST-Co-NF-kB = target: T3, GST-Co-NF-kB (UniProt F1ARL5)
# T3 sequence: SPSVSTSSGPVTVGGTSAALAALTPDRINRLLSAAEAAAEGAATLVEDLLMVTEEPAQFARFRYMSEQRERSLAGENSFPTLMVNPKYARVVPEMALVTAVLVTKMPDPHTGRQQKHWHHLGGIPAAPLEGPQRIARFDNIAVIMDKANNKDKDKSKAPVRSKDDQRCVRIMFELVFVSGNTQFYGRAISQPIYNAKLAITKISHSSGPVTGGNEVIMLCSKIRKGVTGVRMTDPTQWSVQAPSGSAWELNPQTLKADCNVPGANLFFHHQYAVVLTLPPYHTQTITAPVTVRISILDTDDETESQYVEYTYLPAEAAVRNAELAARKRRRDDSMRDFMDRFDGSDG
# GST-Dm-Relish = target: T4, GST-Dm-Relish (UniProt Q94527)
# T4 sequence: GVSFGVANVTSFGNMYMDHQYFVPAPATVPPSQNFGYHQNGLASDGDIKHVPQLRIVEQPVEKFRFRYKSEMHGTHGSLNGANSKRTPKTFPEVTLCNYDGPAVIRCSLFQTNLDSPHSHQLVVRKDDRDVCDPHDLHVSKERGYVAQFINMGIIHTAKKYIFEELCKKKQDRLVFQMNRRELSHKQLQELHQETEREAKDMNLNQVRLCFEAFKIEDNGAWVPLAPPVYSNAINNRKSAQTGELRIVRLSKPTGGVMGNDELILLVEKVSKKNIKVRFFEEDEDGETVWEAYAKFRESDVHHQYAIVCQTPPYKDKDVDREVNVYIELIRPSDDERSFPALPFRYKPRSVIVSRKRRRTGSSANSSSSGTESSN
# GST-Aq-NF-kB = target: T5, GST-Aq-NF-kB (UniProt A9Y5G7)
# T5 sequence: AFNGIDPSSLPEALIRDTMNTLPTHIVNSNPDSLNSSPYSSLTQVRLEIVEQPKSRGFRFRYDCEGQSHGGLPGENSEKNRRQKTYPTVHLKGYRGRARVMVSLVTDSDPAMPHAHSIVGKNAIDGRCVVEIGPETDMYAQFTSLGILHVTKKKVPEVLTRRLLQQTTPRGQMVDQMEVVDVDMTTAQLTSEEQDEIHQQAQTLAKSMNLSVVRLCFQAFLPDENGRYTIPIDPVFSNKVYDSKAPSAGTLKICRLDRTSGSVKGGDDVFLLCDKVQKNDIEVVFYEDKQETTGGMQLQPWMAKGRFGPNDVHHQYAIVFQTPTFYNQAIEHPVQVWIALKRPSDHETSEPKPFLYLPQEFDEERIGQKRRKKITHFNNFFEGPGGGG
Sequence,binding signal (GST-Ap-NF-kB RHD),binding signal [1],binding signal (GST-Co-NF-kB),binding signal (GST-Dm-Relish),binding signal (GST-Aq-NF-kB)
CCGATTAACATCACAAACGACAGTGATGTTAATCGGGTCTTGATTCGCTTGACGCTGCTG,-0.869 z-score,0.173 z-score,-0.242 z-score,0.854 z-score,-0.344 z-score
CCGATTAACATCATCGGAATACGTGATGTTAATCGGGTCTTGATTCGCTTGACGCTGCTG,0.0423 z-score,-0.485 z-score,-0.0904 z-score,0.463 z-score,-0.153 z-score
CCGATTAACATCATATAAGGGCCTGATGTTAATCGGGTCTTGATTCGCTTGACGCTGCTG,0.245 z-score,-0.119 z-score,-1.18 z-score,-0.346 z-score,0.598 z-score
CCGATTAACATCAAATACGCGATTGATGTTAATCGGGTCTTGATTCGCTTGACGCTGCTG,-0.397 z-score,-0.564 z-score,-0.552 z-score,-0.659 z-score,-0.335 z-score
CCGATTAACATCAGTTGACATAGTGATGTTAATCGGGTCTTGATTCGCTTGACGCTGCTG,-0.266 z-score,0.0898 z-score,-0.309 z-score,-0.161 z-score,-0.0904 z-score
CCGATTAACATCAGTTAGGTTAATGATGTTAATCGGGTCTTGATTCGCTTGACGCTGCTG,-0.064 z-score,-0.16 z-score,-0.95 z-score,-0.476 z-score,-0.312 z-score
CCGATTAACATCAAATCCAACACTGATGTTAATCGGGTCTTGATTCGCTTGACGCTGCTG,-0.818 z-score,0.122 z-score,0.0814 z-score,-0.498 z-score,-0.312 z-score
CCGATTAACATCACAATAAAATGTGATGTTAATCGGGTCTTGATTCGCTTGACGCTGCTG,-1.06 z-score,-0.541 z-score,-0.545 z-score,0.975 z-score,-0.564 z-score
CCGATTAACATCAACGCCCTGCCTGATGTTAATCGGGTCTTGATTCGCTTGACGCTGCTG,0.127 z-score,-0.482 z-score,0.106 z-score,-0.334 z-score,-0.294 z-score
